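Tested at 5 concentrations; 48 h exposure; 96-well plates; endpoints linearly interpolated, else capped at highest concentration. GI50 marks 50% less growth. TGI: total growth inhibition.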
System: NCI-H322M lung
Assay: growth of human tumour cells (NCI), 48 h

SMILES | GI50 [µM] | TGI [µM]
CN1CCN(c2ccc(C(=O)/C=C/c3cc(C(F)(F)F)ccc3Cl)cc2)CC1 | 13.4 | 26.2
O=C(N/N=C/c1occc1Br)c1[nH]c2ccc(Br)cc2c1-c1ccccc1 | 6.13 | 21.8

— PubChem BioAssay (NCI)
